Experimental data published in PubChem BioAssay (NCATS).
Values joined by “and” are separate entries in the source; they are usually repeats but may differ in a detail not shown here. Equal values may be shown once. Inconclusive means that the source gave no clear call. Such entries were picked first, then a sample of the others. For some assays here: Where the call is inconclusive, the potency comes from a doubtful curve fit. Active and inactive are the calls of the source. Calls come from the whole dose curve; as a rule, active = well fitted curve in the direction sought with a large enough effect; inconclusive = small, poorly fitted or top-dose-only effect, or another doubt; inactive = no such curve, though single readings can be large; an effect the other way counts as inactive or inconclusive.

What was measured:
[1] = Viability qHTS for spleen associated tyrosine kinase inhibitor (SYKi) naive MV4-11 cells (AID 1963823); conditions: MV4-11 AML viability, CellTiter-Glo luminescence, 72 h; viability (% of control): at 45 µM (top of the series); note: nearly all actives have a fitted effect of over 40% in size; note: potency is the fitted concentration of half-maximal effect
Summary of the method: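 Read-out: CellTiter-Glo luminescence. Exposure: 72 hr, 37 C, 5% CO2, 95% humidity. Cells: MV4-11 without SYK inhibitor history, 500/well, qHTS format.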

[2] = Viability qHTS for spleen associated tyrosine kinase inhibitor (SYKi) drug resistant MV4-11 cells (AID 1963824); note: potency is the fitted concentration of half-maximal effect; nearly all actives have a fitted effect of over 35% in size
Summary of the method: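 SYK-inhibitor-resistant MV4-11 AML cells were seeded at 500 per well onto compound and cultured 72 hours (37 °C, 5% CO2). CellTiter-Glo was then added, and after 10 min at room temperature, luminescence gave viability.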

[3] = Quantitative highthroughput screen to assess conditional lethalithy of NOMO1 cells grown in RPMI1640 with untreated serum (RPMI+s) (AID 1963876); conditions: NOMO1 AML cells in RPMI+serum, CellTiter-Glo viability, 48 h; viability: at 45.8 µM (top of the series); note: nearly all actives have a fitted effect of over 35% in size; note: potency is the fitted concentration of half-maximal effect;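 for Viability: 100% = DMSO wells and 0% = empty wells without cells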
Summary of the method: (§1)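 Each medium arm—HPLM with 10% dialyzed FBS, or RPMI1640 with 5 mM glucose and 10% untreated or dialyzed FBS—was screened against an 11-point, 3-fold compound titration for 48 h at 37 °C, with CellTiter-Glo luminescence as endpoint.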

[4] = Quantitative highthroughput screen to assess conditional lethalithy of NOMO1 cells grown in RPMI1640 with dialyzed fetal bovine serum (RPMI+ds) (AID 1963877); note: nearly all actives have a fitted effect of over 30% in size; note: potency is the fitted concentration of half-maximal effect;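 for Viability: 100% = DMSO control wells and 0% = empty wells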
Summary of the method: as §1

[5] = Quantitative highthroughput screen to assess conditional lethalithy of NOMO1 cells grown in Human Plasma-Like Medium with dialyzed fetal bovine serum (HPLM+ds) (AID 1963878); conditions: NOMO1 AML cells in HPLM+ds, CellTiter-Glo viability, 48 h; viability: at 45.8 µM (top of the series); note: nearly all actives have a fitted effect of over 35% in size; note: potency is the fitted concentration of half-maximal effect;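 for Viability: 100% = DMSO wells and 0% = empty wells on each plate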
Summary of the method: as §1

[6] = Quantitative highthroughput screen to assess conditional lethalithy of P12 Ichikawa cells grown in Human Plasma-Like Medium with dialyzed fetal bovine serum (HPLM+ds) (AID 1963879); conditions: Potency: viability; note: nearly all actives have a fitted effect of over 35% in size; note: potency is the fitted concentration of half-maximal effect
Summary of the method: as §1

[7] = Quantitative highthroughput screen to assess conditional lethalithy of SEM cells grown in Human Plasma-Like Medium with dialyzed fetal bovine serum (HPLM+ds) (AID 1963882); note: nearly all actives have a fitted effect of over 35% in size; note: potency is the fitted concentration of half-maximal effect
Summary of the method: as §1

[8] = Quantitative highthroughput screen to assess conditional lethalithy of SEM cells grown in RPMI1640 with dialyzed fetal bovine serum (RPMI+ds) (AID 1963884); conditions: SEM B-ALL cells, RPMI+dialyzed FBS, CellTiter-Glo viability, 48 h; viability: at 45.8 µM (top of the series); note: nearly all actives have a fitted effect of over 35% in size; note: potency is the fitted concentration of half-maximal effect;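 for Viability: 100% = DMSO control wells and 0% = empty wells without cells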
Summary of the method: as §1

[9] = Quantitative highthroughput screen to assess conditional lethalithy of P12 Ichikawa cells grown in RPMI1640 with dialyzed fetal bovine serum (RPMI+ds) (AID 1963880); conditions: Potency: P12-Ichikawa viability
Summary of the method: as §1

[10] = Cellular viability qHTS for adrenocortical cancer (ACC) cell line SW-13 (AID 1963989); conditions: SW-13 ACC cells viability, CellTiter-Glo, 48 h; activity (max response): stronger effect = lower value;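 note: cells grown in serum-free medium with ITS supplement; % is set by controls: 0 for no effect and ±100 for the full control effect; nearly all actives have a fitted effect of over 65% in size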
Summary of the method: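 Here, serum-free SW-13 cultures were dosed up to 46 uM. Following 48 h, ATP-dependent luminescence (CellTiter-Glo) reported viable cells, and logistic modeling produced IC50 values.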

[11] = Cellular viability qHTS for adrenocortical cancer (ACC) cell line NCI-H295R (AID 1963990); conditions: CellTiter-Glo ATP luminescence, 48 h; activity change, negative = viability loss: at 46.1 µM (top of the series); note: potency is the fitted concentration of half-maximal effect; nearly all actives have a fitted effect of over 60% in size
Summary of the method: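 Viability of NCI-H295R after 48 h of treatment (final up to 46 uM) measured through cellular ATP luminescence.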
Tags give direction and shape of the fitted curve.

Compound | Potency [1] | Potency [2] | Potency [3] | Potency [4] | Potency [5] | Potency [6] | Potency [7] | Potency [8] | Potency [9] | activity (max response) [10] | Potency [11]
O=C(c1ccc(F)cc1)C1CCN(CCn2c(=O)[nH]c3ccccc3c2=O)CC1 | inactive | active: 16.8 µM and inconclusive: 731 nM [cytotoxic, full curve, poor fit] | inactive | inactive | inactive | inactive | inactive | inactive |  |  | 
COc1nccc(-c2c(-c3ccc(F)cc3)ncn2C2CCC(O)CC2)n1 (stereo unspecified) | inconclusive: 20.9 µM [cytotoxic, single point] and inconclusive: 8.2 µM [cytotoxic, partial curve] | inconclusive: 16.6 µM [cytotoxic, partial curve, poor fit] and inconclusive: 8.2 µM [cytotoxic, partial curve, poor fit] | inconclusive: 33.2 µM [cytotoxic, single point] | inconclusive: 29.6 µM [cytotoxic, partial curve, poor fit] | inconclusive: 33.2 µM [cytotoxic, single point] | inactive |  | inconclusive: 20.9 µM [cytotoxic, partial curve] | inconclusive: 37.2 µM [cytotoxic, single point] | inactive: -14% | 
Fc1ccc([C@@H]2CCNC[C@H]2COc2ccc3c(c2)OCO3)cc1 | inconclusive: 26.6 µM [cytotoxic, single point] | inconclusive: 21.1 µM [cytotoxic, single point] | inconclusive: 37.2 µM [cytotoxic, single point] | inconclusive: 26.4 µM [cytotoxic, single point] | inconclusive: 23.5 µM [cytotoxic, single point] | inconclusive: 16.6 µM [cytotoxic, partial curve] | active: 14.8 µM |  | inconclusive: 9.35 µM [cytotoxic, partial curve] |  | inconclusive: 3.66 µM [cytotoxic, partial curve, poor fit]
